Measurements reported in PubChem BioAssay (NCI).
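Briefly, cells in 96-well plates were exposed to five compound concentrations for 48 h, and endpoints were estimated by linear interpolation. Here, GI50 denotes the concentration required for 50% inhibition of growth.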 Not every entry of the source has a single result; some have several. Only these are listed. The source may hold further records. For some of these results: The tests behind the records often covered other concentration ranges, which the source does not state; some values may only mark the edge of a range. Records carry a tag for their origin. Letters count within one entry.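 The concentration for full growth arrest is given as TGI.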 For some of these results: Values that stand side by side are repeats in other runs, samples, wells, individuals or studies.

Legend:
Experiment in all cases: NCI tumour cell line growth inhibition, 48 h
DU-145 prostate = tested on: DU-145 prostate
RPMI-8226 leukemia = tested on: RPMI-8226 leukemia
HCT-15 colon = tested on: HCT-15 colon
HS 578T breast = tested on: HS 578T breast
CAKI-1 renal = tested on: CAKI-1 renal
SF-295 CNS = tested on: SF-295 CNS
ACHN renal = tested on: ACHN renal
U251 CNS = tested on: U251 CNS
SF-268 CNS = tested on: SF-268 CNS
HL-60(TB) leukemia = tested on: HL-60(TB) leukemia
OVCAR-8 ovarian = tested on: OVCAR-8 ovarian
SN12C renal = tested on: SN12C renal
HT29 colon = tested on: HT29 colon
CCRF-CEM leukemia = tested on: CCRF-CEM leukemia
MOLT-4 leukemia = tested on: MOLT-4 leukemia
HCC-2998 colon = tested on: HCC-2998 colon
SR leukemia = tested on: SR leukemia
SK-OV-3 ovarian = tested on: SK-OV-3 ovarian
SK-MEL-28 melanoma = tested on: SK-MEL-28 melanoma
SNB-19 CNS = tested on: SNB-19 CNS
NCI/ADR-RES ovarian = tested on: NCI/ADR-RES ovarian
SW-620 colon = tested on: SW-620 colon
HOP-62 NSCLC = tested on: HOP-62 NSCLC
MCF7 breast = tested on: MCF7 breast

CC(C)C[C@H](NC(=O)[C@H](Cc1ccccc1)NC(=O)c1cnccn1)B(O)O
TGI (DU-145 prostate): 199 nM, 4.28 µM [sample A] and 17.3 µM [sample B] | TGI (RPMI-8226 leukemia): 22.7 nM [sample A] and 664 nM [sample B] | TGI (HCT-15 colon): 25.2 nM [sample A] and 3.09 µM [sample B] | TGI (HS 578T breast): 87.3 nM [sample A, mean of 4 tests] and 9.78 µM [sample B, mean of 3 tests] | TGI (CAKI-1 renal): 19 nM [sample A] and 910 nM [sample B] | TGI (SF-295 CNS): 13 nM, 154 nM [sample A] and 24.3 nM [sample B] | TGI (ACHN renal): 663 nM, > 100 µM [sample A] and 632 nM [sample B] | TGI (U251 CNS): 111 nM, 74.7 nM [sample A] and 1.28 µM [sample B] | TGI (SF-268 CNS): 10.8 nM [sample A] and 410 nM [sample B] | TGI (HL-60(TB) leukemia): 23.4 nM, > 100 µM [sample A] and 856 nM [sample B] | TGI (OVCAR-8 ovarian): 114 nM [sample A, mean of 4 tests] and > 11.5 µM [sample B, mean of 3 tests] | TGI (SN12C renal): 9.79 nM, < 10.7 nM [sample A] and 184 nM [sample B] | TGI (HT29 colon): 6.61 nM [sample A] and 246 nM [sample B] | TGI (CCRF-CEM leukemia): 44.5 nM [sample A, mean of 4 tests] and > 100 µM [sample B, mean of 3 tests] | TGI (MOLT-4 leukemia): 165 nM [sample A] and > 100 µM [sample B] | TGI (HCC-2998 colon): 1.31 nM [sample A] and 16.6 nM [sample B] | TGI (SR leukemia): 86.7 nM [sample A] and > 100 µM [sample B] | TGI (SK-OV-3 ovarian): 168 nM, > 100 µM [sample A] and 553 nM [sample B] | TGI (SK-MEL-28 melanoma): 3.16 nM [sample A] and 18.9 µM [sample B] | GI50 (SNB-19 CNS): 190 nM [sample A, 1 test] and 3.49 nM [sample A, mean of 4 tests] and < 10.9 nM [sample B, mean of 3 tests] | TGI (SNB-19 CNS): > 100 µM [sample A, 1 test] and 896 nM [sample A, mean of 4 tests] and > 100 µM [sample B, mean of 3 tests] | TGI (NCI/ADR-RES ovarian): 195 nM, > 100 µM [sample A] and > 100 µM [sample B] | TGI (SW-620 colon): 15.6 nM [sample A] and 277 nM [sample B] | TGI (HOP-62 NSCLC): 14.9 nM, 41 nM [sample A] and 312 nM [sample B] | TGI (MCF7 breast): 759 nM, > 100 µM [sample A] and > 73.8 µM [sample B]
